This note sets out measurements from PubChem BioAssay (NCI).

Structures are written as SMILES. More than one record can exist for a structure, and the calls need not agree.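 Note: values are percent growth. 100 is the growth of untreated cells, values between 100 and 0 indicate rising inhibition; between -100 and 0 indicates cell death.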 Not every entry of the source has a single result; some have several. They are shown here; other results are not. How the source made its calls: active means growth percent below 10; inactive means the rest. The source may hold further records. The screen tested this drug many times, at the concentration stated with the values; one value stands for one run. Brackets with × say how often a value occurs here.

For this experiment, the system named is NCI-H23 lung. In words: NCI-60 one-dose screen, 48 h (100 = growth as untreated, 0 = no growth, -100 = all killed). The conditions noted are these: 0.25 µM.

For the compound `COc1cccc2c1C(=O)c1c(O)c3c(c(O)c1C2=O)C[C@@](O)(C(=O)CO)C[C@@H]3OC1CC(N)C(O)C(C)O1` (stereo not given in full), the growth entry (runs of 2006) is “inactive: 22.2%, 40.6%”; the growth entry (runs of 2007) was “inactive: 14.9, 34.6 (2×), 40.5 (2×), 35.9, 43.7 (2×), 30.6 (2×), 40.1 (2×), 41.4, 41.9 (2×), 39.5 (2×), 46.5, 43.4, 44.9, 47.1, 42.8, 36.8, 24.3, 46.9 (2×), 50, 48.8, 30.1, 41.8, 58.4, 33.5, 28.2, 51.7 (2×), 29.7, 36.6, 66, 56.4, 45, 28.9% and active: 8.02%, 5.16%”; the growth entry (runs of 2008) is “inactive: 47.1, 35.2 (2×), 45.2, 30.6 (2×), 42.3 (2×), 47.4, 28.5, 35.6, 44.1, 45.7, 43.5, 46.4, 51.1, 60.3, 22.8, 33.1, 35 (2×), 32, 36.3, 16.6, 22.4, 10.1, 23.7, 36.6, 31.2, 101, 24.3, 33.2, 50, 32.5, 48.4, 48.6, 33.8, 15, 30.8, 50.2, 46.7, 43.3, 36, 37.6, 43.7, 58.9, 57.5, 42.5, 52.4, 43, 42.8, 48.9% and active: 6.26%”; the growth entry (runs of 2009) was “inactive: 41.7 (2×), 16.3, 21.7, 29.3 (2×), 35.3, 36.6, 36.1, 43.3, 31.9, 41.8, 40.6, 43.5, 33.3, 43, 20.3 (2×), 11.5, 18, 22.5, 29.9, 21.5, 23.9, 14.2, 23.3, 26.2, 28.8, 34.3, 25.9, 23.8, 40.5, 24.5, 24.6, 32.1 (2×), 27.7, 27.1, 18.9 (2×), 27.2, 17.6, 30.2, 29.1 (2×), 22.2, 15.8, 33.8, 16.7, 16.1, 31.2, 39, 23.7, 56.3, 37.8, 39.6, 38.7, 51.2, 30.3, 42.6, 39.4, 55.9, 52.5, 45.2, 40.9% and active: -2.53%, 3.33%”; the growth entry (runs of 2010) is “inactive: 34.4 (2×), 40.1, 32.7 (2×), 33.4, 33.1, 38.3, 29.9, 30.8, 44, 47, 47.2, 46.5, 43.1, 43.2, 43.6, 39, 31.6, 42.4 (2×), 52.6, 28.8, 33.5, 24.9, 25.1, 33.2, 32.6, 45.7, 30.3, 28.3, 45, 35.2, 21, 40, 38.5, 37, 37.9, 39.9, 41.5, 40.9, 35.1, 36.3, 47.1, 41.7, 40.6, 48 (2×), 45.9, 50.4, 47.3, 49.5, 44.9, 52.9, 34.6%”; the growth result (runs of 2011) was “inactive: 51.8, 39.3, 46.5 (2×), 42.2, 49.2, 47.6, 43.6 (2×), 48.4, 36.2, 44.5, 48.2, 59.3, 50 (2×), 55.7, 53.6, 51.2 (2×), 48.6, 49.3, 45.5, 41.7, 39.9, 50.1, 49.8, 45.8, 39.1 (2×), 46, 32.1 (2×), 44.4, 35, 34.2, 38.4 (2×), 22.1, 27.5, 25.7, 39.6, 38.6, 31.3, 32.8, 32.5 (2×), 36.7, 34.6, 28.7, 28.9, 40.9 (2×), 38.9, 43.8, 47.3, 38.1, 40.7, 35.2, 34.7, 32, 34.1, 20%”. The growth entry by setting is: (runs of 2012) “inactive: 33.2, 21, 24.8 (2×), 33.4 (2×), 31.2, 32.5, 36.1, 42.1, 45.5, 23.9, 17.8, 24.2, 24.6 (2×), 28.5, 28.7, 20.8, 23.6 (2×), 24.3, 25.9, 33.3, 49.4, 35.5, 35.6, 33.1, 35.2, 32.1, 28.8, 35.1, 37.7, 26.3, 26.4, 10.3, 48.4, 53.4, 44.5, 40.5, 47.8, 57.5 (2×), 57.3, 62.1, 67.7, 65.5, 66.3, 71.6, 75.9, 56.5, 60.3, 56, 47.6, 60.7, 46.5, 62.5, 58.2, 47.7, 54.1, 48, 39.7, 41.6, 46.4, 51.8, 42.4, 59.8, 57.1, 55, 49.8, 62.3, 47.3%”; (runs of 2013) “inactive: 37.8, 47.3, 48.5, 37.7 (2×), 55.6, 40.7, 55.7, 42.1, 45.9, 62.8, 59.2, 57.6, 61.6, 50.7, 63.9, 51.6 (2×), 60, 56, 71.5, 59.7, 48.7, 66, 51.8 (2×), 60.6, 52.7, 55 (2×), 39.7, 42.6, 54.8, 43.3, 53.4, 41.6, 52.9, 48.9, 52.2, 42.8, 54, 33, 34.9, 63.7, 58.6, 50.2, 45, 50, 48.6, 46.8, 50.5, 51.4, 47, 52, 47.7, 39.3, 24.3, 28.4, 36.3, 37.5, 29.2, 26.4, 31.9, 29.3, 41, 39.6, 40.4, 36.2, 24.1, 29.1, 34.6, 33.2%”; (runs of 2014) “inactive: 33.7, 39.2, 35.6 (2×), 26.5 (2×), 28.1, 29.3, 32.9, 29.4, 30.5 (2×), 27.7, 33.6, 25.7, 43.5, 44.6, 40.3, 42.5, 34.7, 40.2, 36.8, 41.5, 43.1, 47.6, 38.3, 41.4, 20.6, 24.7, 31.4 (2×), 30.6, 27.2, 35, 33.8 (2×), 32.7, 30 (2×), 38.6, 33.4, 25.9 (2×), 39.8, 37.2 (2×), 31.7 (2×), 33.9, 32.3, 30.2 (2×), 24.6, 24.1, 29.1 (2×), 25.8, 30.8, 39.5, 34.4, 33.2, 22.7 (2×), 18.9, 39.1, 26.3, 29.2, 28.2, 38.1, 22.9, 31.6, 41.1, 31.5, 42.6, 37.3, 35.5, 27.9%”; (runs of 2015) “inactive: 33.8, 30.1 (2×), 36.6 (2×), 31.2, 29.1, 42.3, 34.1, 30.9 (3×), 37.3, 27.6, 41.1, 36.7, 36.8, 48.3, 32, 32.9, 27.2, 33.2 (2×), 34.7, 36.1, 33.7 (2×), 44.3, 41.2, 35.8, 40.9, 40.5, 32.1, 36.3 (2×), 28.8 (2×), 34.3 (3×), 28.3, 37.8, 19.4, 28.4, 28, 38.4, 42.1, 33, 19.8, 38.8, 29.6, 36.2, 43.3, 31.7, 37.9, 30.3, 41.4, 56.4, 25.7, 30.8, 22.1, 18.4, 35.9 (2×), 37.7 (2×), 23.2, 33.6 (2×), 45.8 (2×), 41.5 (2×), 28.6, 33.5, 39, 31.3, 47.5, 35.6, 40.2, 41.8%”; (runs of 2016) “inactive: 38.7, 35.9 (3×), 28.2, 34.2 (2×), 39.4, 43, 27.5 (2×), 35.8 (2×), 43.2, 31.4, 30.2, 45.1, 28.9 (2×), 41.4 (2×), 24.7, 36, 29.8, 36.7 (2×), 22.3, 33.8, 40.8, 33.7 (2×), 26, 34.9, 33, 35.2, 37 (2×), 30.4, 26.3, 31.5, 29.4, 30.6 (2×), 29.9, 36.3, 46.1 (2×), 34.3 (2×), 38.3, 42.9, 49, 53.1, 41.9, 37.9 (2×), 33.1, 36.5, 27.6, 36.8, 35.3, 39.5, 39.1, 33.9, 34.7, 38.5 (2×), 45, 39.9, 41.7, 37.7, 43.8 (2×), 44.5, 46, 48.8, 45.6, 47.7, 50, 44.1, 34.5, 36.1, 42.3, 35, 33.2, 37.8, 39, 39.2%”; (runs of 2017) “inactive: 39.3, 30.9, 33.3 (2×), 32.5 (2×), 33.8 (2×), 30.6, 30 (2×), 21.8, 29 (2×), 30.4 (2×), 29.4 (3×), 27.5 (2×), 32 (2×), 30.8 (2×), 32.2, 32.8, 30.2 (2×), 31, 28.7, 43.1, 49, 31.6 (2×), 36.6, 36, 34, 34.6 (2×), 24.1, 26.1, 34.9, 38.6, 26, 25.2, 29.9 (3×), 26.5, 41.3, 40.2, 27.6 (2×), 27.2, 26.6, 34.1, 35.9, 28.2 (2×), 25.1, 32.7, 37.5, 38.9, 43.6, 29.3, 27.4, 32.3, 25.9, 33.9, 34.3, 36.4, 34.5, 35.1 (2×), 29.6, 33.7, 34.8%”. The growth entry was “inactive: 27.9 (3×), 29.8, 24.5, 36.4, 33.6, 28.3, 30.4, 27.5, 34.2 (2×), 29, 37.6 (2×), 31.6, 36.1, 33.4, 38.5, 34.1 (2×), 43.5, 37.3, 36.3 (2×), 41, 29.1, 32.9, 31.7, 33.7, 32.7 (2×), 33.3, 35.3, 30, 34.3 (2×), 29.6, 32.3, 30.9, 39.9, 28.9, 26.6, 32.5, 33.8 (2×), 36.8, 30.3, 32.1, 39.6, 33.9, 38.7%” (runs of 2018); “inactive: 22.3, 20, 30.4, 18.2, 20.5 (2×), 19.2, 26.3, 18, 20.3, 23.8, 22.4, 29.7, 28.3, 38.5, 30, 28.1, 26.2, 28.7, 37.9, 31.7, 24.6, 26.6, 32.1, 33.2, 30.1, 24.3, 22.2, 24.8, 35.7, 33.3, 31.3, 33.7, 28.4 (2×), 32.7, 31.4, 30.8, 25.8, 24.5, 26.7 (2×), 28.2, 29.6, 16.4%” (runs of 2019); “inactive: 14.4, 17.5, 28.8, 23.6, 22.9, 25.8, 28.6, 29.6, 29.7, 23.2, 24.9, 28.7, 30.8, 29.2 (2×), 42.2, 31.4, 40.7, 39.8, 41, 32.1, 40.8, 44.1, 26.6%” (runs of 2020).
